Results reported in the supplement of paper PMC5919970.
Counter-ions that a name gives are not always drawn. The full ranking holds about 2,000 compounds; the median of “fractional viability relative to vehicle” is about 0.91, and the lowest 2% start at about 0.045. This is one part of the list.

Test system: TYKNU
Experiment: fractional viability relative to vehicle; TYKNU is a high-grade serous ovarian cancer line; higher = less growth inhibition
Conditions: 72 h
Summary of the method: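 Drug treatment lasted 72 h, with cells grown at 37 °C in 5% CO2 in RPMI 1640 supplemented with 10% FBS. Beforehand, TYKNU control cells or their lentiCRISPRv2 knockout derivatives had been seeded at 500 cells per well into drug-stamped 384-well plates carrying a ~2100-compound library at 2 or 10 μM, in duplicate. Viability came from Cell Titer Glo luminescence, with averaged duplicate treatment wells normalised to duplicate control wells in the same plate position.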

[1] = 2uM, genotype: DNM1L knockout (sgDNM1L #1)
[2] = 2uM, genotype: sgCTRLA1 (non-targeting control)
[3] = 10uM, genotype: DNM1L knockout (sgDNM1L #1)
[4] = 10uM, genotype: sgCTRLA1 (non-targeting control)

| SMILES | fractional viability [1] | fractional viability [2] | fractional viability [3] | fractional viability [4] |
| --- | --- | --- | --- | --- |
| Cc1sc2c(c1C)C(c1ccc(Cl)cc1)=N[C@@H](CC(N)=O)c1nnc(C)n1-2 | 0.35 | 0.412 | 0.319 | 0.408 |
| N[C@@H]1C[C@H]1c1ccccc1 [Tranylcypromine (2-PCPA) HCl] | 0.812 | 0.926 | 0.805 | 0.857 |
| Cn1cc(C2=C(c3cn(C4CCN(Cc5ccccn5)CC4)c4ccccc34)C(=O)NC2=O)c2ccccc21 | 0.952 | 0.961 | 0.948 | 0.916 |
| C[C@@H]1CC[C@@]2(OC1)O[C@H]1C[C@H]3[C@@H]4CC=C5C[C@@H](O[C@@H]6O[C@H](CO)[C@@H](O[C@@H]7O[C@@H](C)[C@H](O)[C@@H](O)[C@H]7O)[C@H](O)[C@H]6O[C@@H]6O[C@@H](C)[C@H](O)[C@@H](O)[C@H]6O)CC[C@]5(C)[C@H]4CC[C@]3(C)[C@H]1[C@@H]2C [Dioscin] | 0.0559 | 0.0816 | 0.0468 | 0.0196 |
| C=CCN1CC[C@]23c4c5ccc(O)c4O[C@H]2C(=O)CC[C@@]3(O)[C@H]1C5 [Naloxone HCl] | 0.991 | 1.06 | 0.856 | 0.974 |
| Cc1cccc(C)c1NC(=O)CN1CCCC1=O [Nefiracetam] | 0.909 | 1.08 | 1.02 | 1.16 |
| Cc1cccc(Cc2c[nH]cn2)c1C [Detomidine HCl] | 1.07 | 1.01 | 0.798 | 1.1 |
| c1ccc2c(c1)Nc1ccccc1S2 [Phenothiazine] | 0.922 | 1.14 | 0.719 | 0.945 |
| CN1CCCCC1Cn1cc(C(=O)c2cc([N+](=O)[O-])ccc2I)c2ccccc21 (configuration not stated) | 0.998 | 1.04 | 0.936 | 0.927 |
| O=C(O)C(=O)c1cn(Cc2ccccc2)c2ccc(-c3ccc(OC(F)(F)F)cc3)cc12 [Tiplaxtinin (PAI-039)] | 0.845 | 1 | 0.766 | 0.741 |
| O=c1ccc2cc(O[C@@H]3O[C@H](CO)[C@@H](O)[C@H](O)[C@H]3O)c(O)cc2o1 [Esculin] | 0.983 | 1.21 | 0.762 | 1.04 |
| O=C(NCC1CCOCC1)c1cnc(Nc2ccc(Cl)cc2Cl)nc1C(F)(F)F | 1.03 | 1.32 | 0.768 | 1.19 |
| CC(=O)O[C@H]1C[C@@H]2CC[C@@H]3[C@H](CC[C@@]4(C)[C@H]3C[C@H]([N+]3(C)CCCCC3)[C@@H]4OC(C)=O)[C@@]2(C)C[C@@H]1[N+]1(C)CCCCC1 [Pancuronium dibromide] | 0.922 | 1.21 | 0.832 | 1.06 |
| Cc1cc(O)ccc1Cl [Chlorocresol] | 0.904 | 1.12 | 0.821 | 0.994 |
| c1cc2c(cc1[C@H]1OC[C@H]3[C@@H]1CO[C@@H]3c1ccc3c(c1)OCO3)OCO2 [Sesamin] | 0.954 | 0.976 | 0.725 | 1.08 |
| O=[N+]([O-])/C=C/c1ccc2c(c1)OCO2 | 0.362 | 0.336 | 0.0604 | 0.0474 |
| Fc1cc(F)c2c(c1)[C@H]1C=CC[C@H]1C(c1cccnc1)N2 (some centres not stated) [Golgicide A] | 0.103 | 0.146 | 0.0639 | 0.0921 |
| Nc1nc(N)nc(NC2CC2)n1 [Cyromazine] | 0.724 | 1.06 | 0.907 | 1.06 |
| CN1[C@@H]2CC[C@H]1C[C@@H](OC(=O)[C@H](CO)c1ccccc1)C2 [Hyoscyamine] | 1.13 | 1.03 | 0.903 | 1.03 |
| NCCc1ccc(S(=O)(=O)F)cc1 | 0.958 | 1.1 | 0.941 | 0.778 |

| SMILES | fractional viability [1] | fractional viability [2] | fractional viability [3] | fractional viability [4] |
| --- | --- | --- | --- | --- |
| Cc1cccc(C(C)c2c[nH]cn2)c1C (configuration not stated) [Medetomidine HCl] | 1.09 | 1.09 | 0.755 | 1.03 |
| C=C[C@H]1CN2CC[C@H]1C[C@H]2[C@H](O)c1ccnc2ccccc12 [Cinchonidine] | 1.13 | 1.12 | 0.817 | 1 |
| COC[C@H]1OC(=O)c2coc3c2[C@@]1(C)C1=C(C3=O)[C@@H]2CCC(=O)[C@@]2(C)C[C@H]1OC(C)=O [Wortmannin] | 0.837 | 0.906 | 0.191 | 0.467 |
| C/C(=C\c1csc(C)n1)[C@@H]1C[C@@H]2O[C@]2(C)CCC[C@H](C)[C@H](O)[C@@H](C)C(=O)C(C)(C)[C@@H](O)CC(=O)O1 [Epothilone B (EPO906, Patupilone)] | 0.275 | 0.321 | 0.3 | 0.302 |
| C=CC[C@]1(O)CC[C@H]2[C@@H]3CCC4=CC(=O)CCC4=C3C=C[C@@]21C [Altrenogest] | 0.986 | 1.12 | 0.849 | 1.01 |
| O=c1[nH]c2ccccc2n1CCCN1CCC(n2c(=O)[nH]c3cc(Cl)ccc32)CC1 [Domperidone] | 1.14 | 1 | 0.812 | 0.834 |
| CC1(C)CC(O)CC(C)(C)N1[O] [Tempol] | 0.995 | 1.15 | 0.799 | 1.17 |
| O=S(=O)(CC1CS1)c1ccc(Oc2ccccc2)cc1 (configuration not stated) | 0.744 | 0.851 | 0.163 | 0.172 |
| CN1[C@@H]2CC(O)C[C@H]1[C@@H]1O[C@@H]12 (some centres not stated) [Scopine] | 1.04 | 1.09 | 0.915 | 1.07 |
| CN(C)Cc1c[nH]c2ccccc12 [Gramine] | 0.908 | 1.14 | 0.859 | 0.971 |
| COc1ccc(C(=O)N2CCCC2=O)cc1 [Aniracetam] | 1.11 | 1.2 | 1.04 | 1.18 |
| O=C(O[C@H]1C[C@H]2CC[C@@H](C1)[N+]21CCCC1)C(O)(c1ccccc1)c1ccccc1 [Trospium chloride] | 0.962 | 1.06 | 0.908 | 1.09 |
| CC[C@@H](C(N)=O)N1CCCC1=O [Levetiracetam] | 1.01 | 1.14 | 0.962 | 1.07 |
| O=C(O)CCCc1ccc(N(CCCl)CCCl)cc1 [Chloroambucil] | 0.784 | 1.21 | 0.494 | 0.662 |
| CN1CCC(c2c[nH]c3ccc(O)cc23)CC1 | 1.16 | 1.1 | 0.921 | 0.977 |
| C1=C2CCCN[C@H]2[C@@H]2C[C@H]1[C@H]1CCCCN1C2 [Aloperine] | 1.14 | 1.03 | 1.02 | 0.909 |
| COc1cc([C@@H]2c3cc4c(cc3[C@H](O)[C@H]3COC(=O)[C@@H]23)OCO4)cc(OC)c1OC [Picropodophyllin (PPP)] | 0.139 | 0.142 | 0.121 | 0.0713 |
| NC(=O)CN1CC(O)CC1=O (configuration not stated) [Oxiracetam] | 0.755 | 1.16 | 0.688 | 0.976 |
| CC(C)=CCC[C@]1(C)C=Cc2c(O)c3c(c(CC=C(C)C)c2O1)O[C@]12C(=C[C@@H]4C[C@H]1C(C)(C)O[C@@]2(C/C=C(/C)C(=O)O)C4=O)C3=O [Gambogic Acid] | 0.068 | 0.0361 | 0.0214 | 0.00876 |
| CCNC(=O)C[C@@H]1N=C(c2ccc(Cl)cc2)c2cc(OC)ccc2-n2c(C)nnc21 | 0.592 | 0.61 | 0.356 | 0.424 |

| SMILES | fractional viability [1] | fractional viability [2] | fractional viability [3] | fractional viability [4] |
| --- | --- | --- | --- | --- |
| CN1c2ccccc2C(NCCCCCCC(=O)O)c2ccc(Cl)cc2S1(=O)=O (configuration not stated) [Tianeptine sodium] | 1.01 | 0.975 | 0.905 | 0.955 |
| CC[C@@]1(O)C(=O)OCc2c1cc1n(c2=O)Cc2cc3ccccc3nc2-1 [Camptothecin] | 0.104 | 0.121 | 0.0886 | 0.0887 |
| O=C(O)CNC(=O)c1c(O)c2ccccc2n(Cc2ccccc2)c1=O | 1.04 | 1.17 | 0.762 | 1 |
| C[N+](C)(C)CCCCCCCCCC[N+](C)(C)C [Decamethonium Bromide] | 0.68 | 1.03 | 0.739 | 0.969 |
| CC1=C(O)C(=O)C=C2C1=CC=C1[C@@]2(C)CC[C@@]2(C)[C@@H]3C[C@](C)(C(=O)O)CC[C@]3(C)CC[C@]12C [Celastrol] | 0.0457 | 0.0557 | 0.0154 | 0.0139 |
| COc1cc(-n2c(=S)[nH]c3ccccc3c2=O)c(Cl)cc1Cl [Mdivi-1] | 0.879 | 0.994 | 0.654 | 0.851 |
| CC(=O)Nc1ccc(Cc2ccc(NC(C)=O)cc2)cc1 | 0.759 | 0.99 | 0.747 | 0.791 |
| CCCN1C[C@H](CSC)C[C@@H]2c3cccc4[nH]cc(c34)C[C@H]21 [Pergolide mesylate] | 1.18 | 1.02 | 0.913 | 0.978 |
| C[C@H]1CCC/C=C/[C@@H]2C[C@H](O)C[C@H]2[C@H](O)/C=C/C(=O)O1 [Brefeldin A] | 0.0667 | 0.0893 | 0.0771 | 0.075 |
| C[C@](O)(COc1ccc(C#N)cc1)C(=O)Nc1ccc(C#N)c(C(F)(F)F)c1 | 1 | 1.13 | 0.879 | 1.03 |
| CC(=O)Nc1ccc(OC[C@](C)(O)C(=O)Nc2ccc([N+](=O)[O-])c(C(F)(F)F)c2)cc1 [Andarine] | 1.07 | 1.1 | 1.05 | 1.03 |
| C[C@]12N[C@H](Cc3ccccc31)c1ccccc12 [MK-801 (Dizocilpine)] | 1.04 | 1.12 | 0.815 | 1.06 |
| C[C@]12CC[C@H]3[C@@H](CC[C@@]45O[C@@H]4C(O)=C(C#N)C[C@]35C)[C@@H]1CC[C@@H]2O [Trilostane] | 1 | 1.21 | 0.872 | 1.06 |
| COC(=O)C1=CCCN(C)C1 [Arecoline] | 0.949 | 1.26 | 0.757 | 1.06 |
| CNCC(=O)c1ccc(O)c(O)c1 [Adrenalone HCl] | 0.846 | 1.01 | 0.703 | 0.933 |
| CC(C)N(CCNC(=O)CN1CCCC1=O)C(C)C [Pramiracetam] | 0.94 | 1.16 | 0.882 | 1.02 |
| C[N+]1(C)[C@@H]2C[C@@H](OC(=O)[C@H](CO)c3ccccc3)C[C@H]1[C@@H]1O[C@@H]12 [Methscopolamine] | 0.989 | 1.14 | 0.989 | 0.908 |
| C[C@]12CC[C@H](O)C[C@@H]1CC[C@@H]1[C@@H]2CC[C@]2(C)C(=O)CC[C@@H]12 [Epiandrosterone] | 1.15 | 0.958 | 0.801 | 0.952 |
